The whole screen tested about 310,000 compounds, of which about 2,200 (0.71%) showed an effect of 50% or more. The effect is printed as a negative number. The list shows a part of the results.

In this assay the target is human ether-à-go-go-related gene (hERG) potassium channel (human, UniProt Q12809). The experiment in a line: primary screen, population patch clamp on CHO cells stably expressing hERG.
human ether-à-go-go-related gene (hERG) potassium channel, sequence (Q12809 whole entry, looked up): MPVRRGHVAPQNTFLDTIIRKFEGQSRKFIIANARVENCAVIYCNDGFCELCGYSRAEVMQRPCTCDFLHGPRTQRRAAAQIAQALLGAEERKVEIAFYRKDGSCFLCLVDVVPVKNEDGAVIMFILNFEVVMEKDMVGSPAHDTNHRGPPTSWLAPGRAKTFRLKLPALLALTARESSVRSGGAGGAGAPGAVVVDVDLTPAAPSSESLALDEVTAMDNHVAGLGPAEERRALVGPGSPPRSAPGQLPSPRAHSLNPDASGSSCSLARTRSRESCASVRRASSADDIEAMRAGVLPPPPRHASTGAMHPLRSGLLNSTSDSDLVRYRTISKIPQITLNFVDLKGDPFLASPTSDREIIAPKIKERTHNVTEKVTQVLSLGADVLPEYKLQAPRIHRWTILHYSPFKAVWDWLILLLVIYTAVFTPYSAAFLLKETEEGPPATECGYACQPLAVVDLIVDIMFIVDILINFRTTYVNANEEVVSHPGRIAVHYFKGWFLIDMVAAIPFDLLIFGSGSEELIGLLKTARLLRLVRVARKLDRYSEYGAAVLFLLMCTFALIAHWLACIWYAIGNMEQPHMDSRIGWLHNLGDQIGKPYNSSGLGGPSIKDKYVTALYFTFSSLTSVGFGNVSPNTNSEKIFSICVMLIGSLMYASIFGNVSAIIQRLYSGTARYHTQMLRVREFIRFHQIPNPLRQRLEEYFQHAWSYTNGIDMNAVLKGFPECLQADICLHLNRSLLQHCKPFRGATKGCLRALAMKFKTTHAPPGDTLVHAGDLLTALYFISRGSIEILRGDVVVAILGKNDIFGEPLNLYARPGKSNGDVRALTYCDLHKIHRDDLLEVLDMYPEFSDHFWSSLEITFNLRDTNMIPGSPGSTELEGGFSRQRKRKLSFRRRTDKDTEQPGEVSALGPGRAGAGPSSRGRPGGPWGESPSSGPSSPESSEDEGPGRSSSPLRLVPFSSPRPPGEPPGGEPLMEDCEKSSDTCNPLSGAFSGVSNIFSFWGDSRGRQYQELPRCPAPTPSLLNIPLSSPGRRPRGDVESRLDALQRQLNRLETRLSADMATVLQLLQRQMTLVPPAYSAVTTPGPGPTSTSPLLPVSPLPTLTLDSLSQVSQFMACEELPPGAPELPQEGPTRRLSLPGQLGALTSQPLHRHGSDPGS
In the case of `O=C(NC(=S)Nc1ccc(Cl)cc1)c1ccccc1`, the “hERG current change (%, negative = inhibition) at 1uM” value was found to be 16.9%.
`Cc1ccc(S(=O)(=O)N2CCOCC2)cc1C(=O)N(C)CCOc1ccc(Cl)cc1`: the “hERG current change (%, negative = inhibition) at 1uM” value is listed as -18.6%.
For `ClC(Cl)(c1nnnn1-c1ccccc1)c1nnnn1-c1ccccc1` the value was 5.48%; for `CC(C)OC(=O)CSc1n[nH]c(-c2cccnc2)n1`, 16.5%.
Take `COc1ccc(C(=O)NCCS(=O)(=O)N2CCc3ccccc3C2)c(OC)c1`: the “hERG current change (%, negative = inhibition) at 1uM” value is on record as -2.92%.
In the case of `O=C(CCN1C(=O)c2ccccc2S1(=O)=O)Nc1ccc(Cl)cc1`, the “hERG current change (%, negative = inhibition) at 1uM” value was 18.9%.
Take `CCOc1ccc(CN2CCN(CCCc3ccccc3)C(CCO)C2)cc1` (stereo not shown): the “hERG current change (%, negative = inhibition) at 1uM” value was -75.8%.
Take `COc1ccc(N2CCN(c3ccc(C(N)=O)cc3[N+](=O)[O-])CC2)cc1`: the “hERG current change (%, negative = inhibition) at 1uM” value was determined as 12.4%.
With `COC(=O)c1c(=O)n(O)c2ccc(OC)cc2[n+]1[O-]`, the “hERG current change (%, negative = inhibition) at 1uM” value worked out at 13%.
On to `Cc1cc(C)cc(OCCNC(=O)CCc2ccccc2)c1`, for which the “hERG current change (%, negative = inhibition) at 1uM” value stood at 12.8%.
For `COC(=O)c1c(NC(=S)NN2CCN(C)CC2)sc2c1CCC(C)C2` (stereo not shown) the value was 40.3%; for `CC(C)CNC(=O)c1ccc(NC(=O)c2cccs2)cc1`, 6.6%; for `CC1CCCCC1NC(=O)CSc1nnc(-c2ccncc2)n1CCCN(C)C.O=C(O)C(=O)O` (stereo not shown), 12.1%.
Consider `O=C1CSC2(C(=O)N3CCCc4cccc2c43)N1c1cccc(C(F)(F)F)c1` (stereo not shown), for which the “hERG current change (%, negative = inhibition) at 1uM” value is reported as -10.6%.
As for `CCCn1nc(C(=O)NCCc2ccc(S(N)(=O)=O)cc2)c2ccccc2c1=O`, the “hERG current change (%, negative = inhibition) at 1uM” value came out at 9.63%.
The figure for `COc1ccc(NC(=O)NCCCN2CCC(Cc3ccccc3)CC2)cc1` is -82.2%.
As to `Cc1ccc(N(CC(=O)NC(C)C)C(=O)CCC(=O)Nc2ccccn2)cc1`, the “hERG current change (%, negative = inhibition) at 1uM” value stood at 19%.
In the case of `Cc1ccc(C(=O)N/C(=C\c2cn(C)c3ccccc23)C(=O)N2CCOCC2)cc1`, the “hERG current change (%, negative = inhibition) at 1uM” value amounted to 10.6%.
Regarding `Cc1ccc(C(=O)NC2CCN(S(=O)(=O)c3ccc(F)cc3)CC2)cc1`, the “hERG current change (%, negative = inhibition) at 1uM” value is recorded as 9.73%.
`COc1ccc(C)cc1N(CC(=O)Nc1ccc2c(c1)OCCO2)S(C)(=O)=O`: the “hERG current change (%, negative = inhibition) at 1uM” value was found to be 14.1%.
Consider `COCCNC(=O)Cn1nc(-c2ccc(C)cc2)c2ccccc2c1=O`, for which the “hERG current change (%, negative = inhibition) at 1uM” value is 11.3%.
`CCOc1ccccc1N(CC(=O)Nc1ccccc1C(=O)OC)S(C)(=O)=O`: the “hERG current change (%, negative = inhibition) at 1uM” value was 12.7%.
With `COc1cccc(CNCC(=O)N2C(C)CCCC2C)c1.O=C(O)C(=O)O` (stereo not shown), the “hERG current change (%, negative = inhibition) at 1uM” value stood at 5.9%.
On to `CC(=O)c1ccc(N2CCN(S(=O)(=O)c3cc4c(cc3C)NC(=O)CO4)CC2)cc1`, for which the “hERG current change (%, negative = inhibition) at 1uM” value was 9.17%.
The figure for `CC(O)CC(C)O` (stereo not shown) is 19.3%.
Take `CC1(C)Oc2ccc3ccc(=O)oc3c2/C(=C/NCCN/C=C2\C(=O)C(C)(C)Oc3ccc4ccc(=O)oc4c32)C1=O`: the “hERG current change (%, negative = inhibition) at 1uM” value came out at 2.08%.
The figure for `Cc1ccc(Oc2cc(C)nc(-c3ccccc3O)n2)cc1` is -0.342%; for `COc1ccc(NC(=S)NC2CC3CCC(C2)N3Cc2ccco2)cc1` (stereo not shown) it is 0.388%; for `Cc1noc(C)c1C(=O)OC(C)C(=O)N(C)c1ccccc1` (stereo not shown) it is 8.99%.
Consider `O=C(CS(=O)(=O)c1ccccc1)c1cc2cc(F)ccc2oc1=O`, for which the “hERG current change (%, negative = inhibition) at 1uM” value was 14.2%.
`COC(=O)c1c(NC(C)=O)sc(C(=O)Nc2ccccc2F)c1C`: the “hERG current change (%, negative = inhibition) at 1uM” value was determined as 5.43%.
Regarding `CCOP(=O)(c1ccccc1)c1nc(-c2ccc(F)cc2)oc1N1CCCCC1` (stereo not shown), the “hERG current change (%, negative = inhibition) at 1uM” value is reported as -2.04%.
Consider `Cc1ccc(N2C(=O)NC(=O)C3(Cc4ccccc4N4CCN(c5ccccc5)CC43)C2=O)cc1` (stereo not shown), for which the “hERG current change (%, negative = inhibition) at 1uM” value is 2.59%.
As to `CC1(C)Cc2ccccc2C(NN=C2CCCC2)=N1`, the “hERG current change (%, negative = inhibition) at 1uM” value is reported as -5.24%.
For `Cc1ccc(NC(=O)c2sc3ncn(CC(=O)N4CCOCC4)c(=O)c3c2C)c(Br)c1` the value was 10.6%.
Turning to `Cc1cnc(NC(=O)c2ccccn2)s1`, the “hERG current change (%, negative = inhibition) at 1uM” value is reported as 14.6%.
The figure for `N#Cc1c(-c2ccccc2)ccnc1Oc1ccccc1` is 4.33%; for `CC(C)N(C(=O)Cc1ccccc1[N+](=O)[O-])C(C)C` it is 11.7%; for `O=C(Cn1c(=O)oc2ccccc21)Nc1ccc(S(=O)(=O)N2CCCCC2)cc1` it is 10.8%.
With `COc1ccc(C2C(C(=O)c3cccs3)=C(O)C(=O)N2Cc2cccnc2)cc1OC` (stereo not shown), the “hERG current change (%, negative = inhibition) at 1uM” value was 5.94%.
For the compound `CC(C)CCNC(=O)c1ccc2c(c1)N(Cc1ccccc1)C(=O)CS2=O` (stereo not shown), the “hERG current change (%, negative = inhibition) at 1uM” value worked out at 2.78%.
Regarding `COc1ccc(C(=O)NC2CCCc3ccccc32)cc1S(=O)(=O)N1CCOCC1` (stereo not shown), the “hERG current change (%, negative = inhibition) at 1uM” value turned out to be 8.99%.
Turning to `CC(=O)Nc1nc2ccccc2n1Cc1ccc(Cl)cc1`, the “hERG current change (%, negative = inhibition) at 1uM” value is recorded as 7.97%.
Consider `CCC(CO)NCC(O)COCc1ccc2c(c1)OCO2` (stereo not shown), for which the “hERG current change (%, negative = inhibition) at 1uM” value was 15.8%.
The figure for `Cc1ccc(C(c2nnnn2C2CCCC2)N2c3ccccc3CC2C)cc1.Cl` (stereo not shown) is 14.8%; for `Cc1ccc(Cn2ccc(NC(=O)C3C4CCC(C4)C3C(=O)O)n2)cc1` (stereo not shown) it is 5.99%.
As for `CCN(CC(=O)NCc1cccs1)S(=O)(=O)c1cccc(C(C)=O)c1`, the “hERG current change (%, negative = inhibition) at 1uM” value is 12.1%.
For `CC(=O)N1CCc2cc(S(=O)(=O)CCC(=O)Nc3c(C)n(C)n(-c4ccccc4)c3=O)ccc21` the value was -1.5%; for `COC(=O)c1cc(NC(=O)/C=C/c2ccccc2)ccc1O`, 13.5%; for `Cc1ccc(NC(=O)C2CCCN(C(=O)c3ccc(Cl)cc3)C2)cc1C` (stereo not shown), 21.1%.
Take `O=C(NCc1ccc(F)cc1)c1cccnc1`: the “hERG current change (%, negative = inhibition) at 1uM” value is recorded as 14.5%.
On to `COC(=O)CN1C(=O)[C@H]2[C@@H](/C=C/c3ccccc3)N3C(=O)CN(CCO)C(=O)[C@@]3(Cc3ccccc3)[C@H]2C1=O`, for which the “hERG current change (%, negative = inhibition) at 1uM” value was determined as 4.37%.
As for `COC(=O)NC1CCC(CC2CCC(NC(=O)OC)CC2)CC1` (stereo not shown), the “hERG current change (%, negative = inhibition) at 1uM” value is 15%.
The figure for `CCOC(=O)C1(Cc2ccccc2)CCCN(C(=O)c2cnn(CC)c2)C1` (stereo not shown) is 9.7%; for `O=C(NNC(=S)NC(=O)c1cccs1)c1cccnc1` it is 15.7%.
Regarding `CCc1ccc(C(C)NC(=O)c2cc(C)oc2C)cc1` (stereo not shown), the “hERG current change (%, negative = inhibition) at 1uM” value came to 12.2%.
As to `Cn1c2ccccc2c2cc(C(=O)NNC(=O)CCl)sc21`, the “hERG current change (%, negative = inhibition) at 1uM” value is recorded as -5.75%.
Regarding `O=C(CCC(=O)N(CC(=O)NC1CCCC1)Cc1ccccc1)Nc1nccs1`, the “hERG current change (%, negative = inhibition) at 1uM” value is reported as 12.2%.
Take `O=C(Nc1cccc(S(=O)(=O)N2CCCCC2)c1)c1ccco1`: the “hERG current change (%, negative = inhibition) at 1uM” value was 9.94%.
`COc1ccc(C2C(C(C)=O)=C(O)C(=O)N2CCc2c[nH]c3ccccc23)cc1` (stereo not shown): the “hERG current change (%, negative = inhibition) at 1uM” value was determined as 10.6%.
Turning to `C=CCn1c(C)cc(C2=NNC(=NC(C)(C)C)SC2)c1C`, the “hERG current change (%, negative = inhibition) at 1uM” value came out at 12.2%.
For the compound `COc1cc(S(=O)(=O)n2ccc(C)n2)ccc1Cl`, the “hERG current change (%, negative = inhibition) at 1uM” value is reported as -1.94%.
For the compound `COCCN(C(=O)COC(=O)/C=C/c1nc2ccccc2s1)c1c(N)n(Cc2ccccc2)c(=O)[nH]c1=O`, the “hERG current change (%, negative = inhibition) at 1uM” value is -4.73%.
For `COc1ccc(C(=O)CSc2nnc(CN3CCCC3)n2-c2ccc(F)cc2)c(OC)c1`, the “hERG current change (%, negative = inhibition) at 1uM” value came to 6.06%.
Consider `COC(=O)c1ccccc1NC(=O)CCc1ccccc1`, for which the “hERG current change (%, negative = inhibition) at 1uM” value was found to be 8.65%.
In the case of `O=C(NC1CC1)c1ccc(C2SCC(=O)N2Cc2ccccc2)cc1` (stereo not shown), the “hERG current change (%, negative = inhibition) at 1uM” value was determined as 8.75%.
Regarding `c1ccc(C2CC3CC(c4ccccc4)N2O3)cc1` (stereo not shown), the “hERG current change (%, negative = inhibition) at 1uM” value worked out at 17.1%.
The figure for `C/C(CC(=O)Nc1ccc2c(c1)OCCO2)=N\NC(=O)COc1ccc(Cl)c(C)c1` is 14%.
As to `CCc1ccc(NC(=O)CCC(=O)c2ccccc2)cc1`, the “hERG current change (%, negative = inhibition) at 1uM” value came to 10.7%.
`N#Cc1c(N)nc2c(c1-c1cccs1)CCCC2`: the “hERG current change (%, negative = inhibition) at 1uM” value came to 0.28%.
For `CCOC(=O)c1ccc(NC(=O)c2ccc(CN3CCOCC3)cc2)cc1` the value was 8.66%; for `O=C1CCCN1c1ccc(S(=O)(=O)NCCOc2ccccc2)cc1`, 7.44%; for `O=C(NC12CC3CC(CC(C3)C1)C2)N(Cc1ccccc1)Cc1ccncc1`, 3.57%.
As to `CC(=O)c1cccc(NC(=O)CC(C)n2ccnc2)c1` (stereo not shown), the “hERG current change (%, negative = inhibition) at 1uM” value is on record as 13.6%.
In the case of `CCc1ccc(NC(=O)C(C)OC(=O)c2cccc(S(=O)(=O)N3CCc4ccccc4C3)c2)cc1` (stereo not shown), the “hERG current change (%, negative = inhibition) at 1uM” value is recorded as 4.49%.
For `O=C(c1cc(-c2ccccc2)nn1-c1ccccc1)N1CCN(S(=O)(=O)c2c(F)cccc2F)CC1` the value was -0.34%; for `O=C(CSc1n[nH]c(-c2cccnc2)n1)Nc1ccc(Cl)cc1`, 8.99%; for `Cn1nc(C(=O)Nc2ccc(S(=O)(=O)N3CCCCC3)cc2)c2ccccc2c1=O`, -0.977%.
As for `O=C(CSc1n[nH]c(-c2ccccc2)n1)Nc1ccc(Br)cn1`, the “hERG current change (%, negative = inhibition) at 1uM” value was found to be 11.4%.
On to `COC(=O)c1ccc(CSc2nnc3sc4ccccc4n23)o1`, for which the “hERG current change (%, negative = inhibition) at 1uM” value worked out at 6.33%.
Turning to `Cl.NCCCCCC(=O)N/N=C/c1ccc2nccnc2c1`, the “hERG current change (%, negative = inhibition) at 1uM” value came out at 14.3%.
For the compound `N#CCCN(Cc1cccnc1)C(=S)NCc1ccco1`, the “hERG current change (%, negative = inhibition) at 1uM” value was found to be 1.66%.
The figure for `COc1cc(NC(=O)COC(=O)CNC(=O)c2ccc(Cl)cc2)c(C)cc1[N+](=O)[O-]` is 11.7%; for `CC(C)c1ccc(OCC(=O)N2CCCCCC2)c(Br)c1` it is 11.7%; for `Cc1nnc(SCC(=O)Nc2sc3c(c2C#N)CCCCC3)n1N` it is 5.12%.
Take `Cc1nnc(SCc2ccc(Cl)cc2)n1CC1CCCO1` (stereo not shown): the “hERG current change (%, negative = inhibition) at 1uM” value amounted to 13.4%.
As for `COc1cccc2cc(C(=O)NCc3ccccc3)c(=N)oc12`, the “hERG current change (%, negative = inhibition) at 1uM” value came out at 17.6%.
As to `CC1CCCN(c2oc(-c3cccc4ccccc34)nc2C#N)C1` (stereo not shown), the “hERG current change (%, negative = inhibition) at 1uM” value was determined as 17%.
